From a collection of fitness landscapes (doi:10.1016/j.celrep.2020.107928)
The full ranking holds about 81,000 sequences; the median of “one-hybrid fitness for binding NBS DNA” is about -0.1, and the highest 2% start at about 0.36. The list shows a part of the results.

B1: Caulobacter ParB omega fusion; a variant is named by its letters at X, in order, B8GW30 (parent)
chain: MESVVVGEPGMSEGRRGLGRGLSALLGEVDAAPAQAPGEQLGGSREAPIEILQRNPDQPRRTFREEDLEDLSNSIREKGVLQPILVRPSPDTAGEYQIVAGERAWRAAQRAGLKTVPIMVRELDDLAVLEIGIIENVQRADLNVLEEALSYKVLMEKFERTQENIAQTIGKSXSHVANXMRLLXLPDEVQSYLVSGELTAXHARAIAAAADPVALAKQIIEGGLSVRETEALARKAPNLSAGKSKGGRPPRVKDTDTQALESDLSSVLGLDVSIDHRGSTGTLTITYATLEQLDDLCNRLTRGI

Variants of: B1
Experiment: one-hybrid fitness for binding NBS DNA (the Noc-binding site; scaled: cognate 1, non-cognate 0); higher = stronger binding
Details: with NBS DNA site
In short: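 Fitness here means the log change in variant-to-wild-type read ratio between plasmids sequenced before and after selection. That scale was set so cognate equals 1 and non-cognate equals 0. The selection was a bacterial one-hybrid screen of Caulobacter ParB libraries, four specificity codons randomised, in E. coli USO carrying a HIS3 reporter with the site 19 bp from the promoter, grown 48 hours at 37°C on M9-minus-histidine with 0.1 mM IPTG and 5 mM 3-AT.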

Variant | one-hybrid fitness for binding NBS DNA
IFAR | ≤ 0.2
ISSY | ≤ 0.2
SCNY | ≤ 0.2
HKRS | ≤ 0.2
LLDR | ≤ 0.2
TAVE | ≤ 0.2
PCTP | ≤ 0.2
HNQC | ≤ 0.2
KYLE | ≤ 0.2
RYYP | ≤ 0.2
FENS | ≤ 0.2
EHAT | ≤ 0.2
HLLG | ≤ 0.2
EYEG | ≤ 0.2
RWCV | ≤ 0.2
KFQA | ≤ 0.2
SCMS | ≤ 0.2
DLLG | ≤ 0.2
RRKQ | 0.436
NKYG | ≤ 0.2
VFSG | ≤ 0.2
RVFD | ≤ 0.2
CPEY | ≤ 0.2
GCCG | ≤ 0.2

Variant | one-hybrid fitness for binding NBS DNA
WFSC | ≤ 0.2
LHAD | ≤ 0.2
YCSR | ≤ 0.2
QSYF | ≤ 0.2
MGGA | ≤ 0.2
QNLH | ≤ 0.2
MWLS | ≤ 0.2
TNWM | ≤ 0.2
RTQV | ≤ 0.2
GLGT | ≤ 0.2
WTWS | ≤ 0.2
EDIC | ≤ 0.2
AGCF | ≤ 0.2
QTCI | ≤ 0.2
IARP | ≤ 0.2
KNFC | ≤ 0.2
QLYP | ≤ 0.2
PHGY | ≤ 0.2
PAND | ≤ 0.2
RNVY | ≤ 0.2
QFTF | ≤ 0.2
WYDA | ≤ 0.2
RWIG | ≤ 0.2
DGDF | ≤ 0.2

Variant | one-hybrid fitness for binding NBS DNA
SAVS | ≤ 0.2
PTKK | ≤ 0.2
WDHR | ≤ 0.2
DAMF | ≤ 0.2
QVHN | ≤ 0.2
INPW | ≤ 0.2
TQPI | ≤ 0.2
QSLY | ≤ 0.2
KETT | ≤ 0.2
IYGG | ≤ 0.2
AGSH | ≤ 0.2
DQDR | ≤ 0.2
HQDS | ≤ 0.2
THNC | ≤ 0.2
HQKT | ≤ 0.2
KARM | ≤ 0.2
HKKN | ≤ 0.2
RVWV | ≤ 0.2
LWNG | ≤ 0.2
YNNS | ≤ 0.2
CTPD | ≤ 0.2
YPCL | ≤ 0.2
CCIT | ≤ 0.2
WLKG | ≤ 0.2

Variant | one-hybrid fitness for binding NBS DNA
STLG | ≤ 0.2
EGQG | ≤ 0.2
RTYD | ≤ 0.2
GVAL | ≤ 0.2
RAAT | 0.364
GCTL | ≤ 0.2
QPFF | ≤ 0.2
QLKI | 0.234
LERK | ≤ 0.2
RSKV | ≤ 0.2
NDVH | ≤ 0.2
PTPI | ≤ 0.2
SDFS | ≤ 0.2
VPIN | ≤ 0.2
DCHG | ≤ 0.2
QMME | ≤ 0.2
PTSD | ≤ 0.2
RNSE | ≤ 0.2
GIYN | ≤ 0.2
RTSG | ≤ 0.2
SKLT | ≤ 0.2
DVKS | ≤ 0.2
IMLT | ≤ 0.2
VMRY | ≤ 0.2

Variant | one-hybrid fitness for binding NBS DNA
DYRG | ≤ 0.2
PMGQ | ≤ 0.2
HRNR | 0.255
PPMW | ≤ 0.2
RLPF | ≤ 0.2
AWSS | ≤ 0.2
DELC | ≤ 0.2
CIFS | ≤ 0.2
LMMR | ≤ 0.2
RYHR | 0.471
VVSL | ≤ 0.2
AVGR | ≤ 0.2
YEGT | ≤ 0.2
ISRR | 0.203
LYMG | ≤ 0.2
SYRG | ≤ 0.2
HMAC | ≤ 0.2
KPSG | ≤ 0.2
SDSQ | ≤ 0.2
PVFG | ≤ 0.2
SLML | ≤ 0.2
MGPG | ≤ 0.2
MRAA | ≤ 0.2
RVVM | ≤ 0.2

Variant | one-hybrid fitness for binding NBS DNA
NQME | ≤ 0.2
NYKV | ≤ 0.2
DLVW | ≤ 0.2
VTRG | ≤ 0.2
QRWI | 0.209
HWPT | ≤ 0.2
YFAA | ≤ 0.2
LMKK | ≤ 0.2
MNYW | ≤ 0.2
IENR | ≤ 0.2
NRQP | ≤ 0.2
QYKM | 0.369
RVVA | ≤ 0.2
TSSW | ≤ 0.2
AVEC | ≤ 0.2
ARKY | ≤ 0.2
FACY | ≤ 0.2
RFNS | 0.331
HRPF | ≤ 0.2
PHDG | ≤ 0.2
ENHK | ≤ 0.2
RDFG | ≤ 0.2
MFTW | ≤ 0.2
QFFY | ≤ 0.2

Variant | one-hybrid fitness for binding NBS DNA
VHQV | ≤ 0.2
CDRT | ≤ 0.2
APCY | ≤ 0.2
LPMV | ≤ 0.2
QYRS | 0.644
NAAH | ≤ 0.2
RSAC | ≤ 0.2
SRHG | ≤ 0.2
PYRE | ≤ 0.2
ISSF | ≤ 0.2
FNPT | ≤ 0.2
ERIS | ≤ 0.2
RMIW | ≤ 0.2
GGTT | ≤ 0.2
GAYK | ≤ 0.2
CSWS | ≤ 0.2
KEMV | ≤ 0.2
GNNG | ≤ 0.2
MHIS | ≤ 0.2
NELP | ≤ 0.2
WNQR | ≤ 0.2
KEDS | ≤ 0.2
QNHR | 0.247
YSEE | ≤ 0.2

Variant | one-hybrid fitness for binding NBS DNA
RVIH | ≤ 0.2
SSHR | 0.261
PFGS | ≤ 0.2
RSMF | ≤ 0.2
QRMP | ≤ 0.2
KRGT | 0.537
PKRM | ≤ 0.2
CSSR | ≤ 0.2
GRFT | ≤ 0.2
YVSY | ≤ 0.2
VRTC | ≤ 0.2
SSNG | ≤ 0.2
TVQF | ≤ 0.2
RLVF | ≤ 0.2
RVLC | ≤ 0.2
IHTV | ≤ 0.2
SPCA | ≤ 0.2
CTRY | ≤ 0.2
QGQI | ≤ 0.2
QLVQ | 0.304
CLSY | ≤ 0.2
PYFS | ≤ 0.2
SNIV | ≤ 0.2
VTEI | ≤ 0.2

Variant | one-hybrid fitness for binding NBS DNA
DTIS | ≤ 0.2
WAMW | ≤ 0.2
WGQR | ≤ 0.2
TFMR | ≤ 0.2
TVFS | ≤ 0.2
YSCS | ≤ 0.2
GCEC | ≤ 0.2
GWNT | ≤ 0.2
RENG | ≤ 0.2
RIQG | ≤ 0.2
LECR | ≤ 0.2
FSCG | ≤ 0.2
PQAT | ≤ 0.2
PKQP | ≤ 0.2
QWWW | ≤ 0.2
QEAS | ≤ 0.2
MHMG | ≤ 0.2
FLKM | ≤ 0.2
QMQF | ≤ 0.2
HGGR | ≤ 0.2
LTIV | ≤ 0.2
PRMV | ≤ 0.2
MRTE | ≤ 0.2
LAYC | ≤ 0.2

Variant | one-hybrid fitness for binding NBS DNA
LASP | ≤ 0.2
RHHT | 0.419
GESR | ≤ 0.2
GHPR | ≤ 0.2
PAPG | ≤ 0.2
HMHS | ≤ 0.2
QTYI | ≤ 0.2
TVQS | ≤ 0.2
TFDE | ≤ 0.2
KNCL | ≤ 0.2
SRWS | ≤ 0.2
PANQ | ≤ 0.2
SYAE | ≤ 0.2
ILHV | ≤ 0.2
PHGV | ≤ 0.2
KARV | ≤ 0.2
LPNF | ≤ 0.2
PQCY | ≤ 0.2
HLLE | ≤ 0.2
QHLS | 0.261
KVQL | ≤ 0.2
FTHR | ≤ 0.2
ITCY | ≤ 0.2
LTHM | ≤ 0.2

Variant | one-hybrid fitness for binding NBS DNA
GMGV | ≤ 0.2
LMGE | ≤ 0.2
NVPN | ≤ 0.2
RCQD | ≤ 0.2
KWQS | ≤ 0.2
VFKY | ≤ 0.2
CRSA | ≤ 0.2
DHTR | ≤ 0.2
AYDS | ≤ 0.2
KYRD | ≤ 0.2
PHEG | ≤ 0.2
ANIG | ≤ 0.2
LEQG | ≤ 0.2
KRFS | 0.358
PTHP | ≤ 0.2
AWLM | ≤ 0.2
WEHS | ≤ 0.2
RTYI | ≤ 0.2
LIML | ≤ 0.2
RDWL | ≤ 0.2
TPRA | ≤ 0.2
RQID | ≤ 0.2
PNKS | ≤ 0.2
TYEP | ≤ 0.2

Variant | one-hybrid fitness for binding NBS DNA
LMML | ≤ 0.2
VNDI | ≤ 0.2
DGHR | ≤ 0.2
GNSG | ≤ 0.2
SVQV | ≤ 0.2
LSVK | ≤ 0.2
EMAV | ≤ 0.2
ACKP | ≤ 0.2
SGTS | ≤ 0.2
RNNV | ≤ 0.2
VTTI | ≤ 0.2
SVPC | ≤ 0.2
RNFN | ≤ 0.2
CGPR | ≤ 0.2
SFSE | ≤ 0.2
RVYL | ≤ 0.2
PDAG | ≤ 0.2
CAQC | ≤ 0.2
MWQL | ≤ 0.2
EKLF | ≤ 0.2
IFLS | ≤ 0.2
QDLG | ≤ 0.2
PAMM | ≤ 0.2
QAQI | ≤ 0.2

Variant | one-hybrid fitness for binding NBS DNA
WGTP | ≤ 0.2
DHST | ≤ 0.2
LVLW | ≤ 0.2
ELKN | ≤ 0.2
DVPW | ≤ 0.2
LMFV | ≤ 0.2
HNVG | ≤ 0.2
FLVE | ≤ 0.2
IKDR | ≤ 0.2
NSCC | ≤ 0.2
RRQH | 0.447
VHKI | ≤ 0.2
TTDQ | ≤ 0.2
MNTQ | ≤ 0.2
DRDT | ≤ 0.2
CARF | ≤ 0.2
NPWD | ≤ 0.2
GTAT | ≤ 0.2
